{"source": "PubChem BioAssay AID540317", "about": "(National Center for Advancing Translational Sciences (NCATS), 2011)", "note": "“And” between values parts separate entries of the source, which are not always exact repeats. Equal values may be shown once. Screen size: about 390,000 compounds; about 2,200 (0.56%) were called active. The inconclusive results got no clear call from the source; some entries with a clear call stand among them for comparison. Calls follow the shape of the dose curve; as a rule, active = well fitted inhibition curve with a large enough effect; inconclusive = small, poorly fitted or top-dose-only effect; inactive = no such curve, though single readings can be large or run the other way. Potencies of inconclusive entries are doubtful fits and often do not repeat. Potency is read from the fitted curve at half-maximal effect; tags tell the direction and shape of the fitted curve."}
{"molecular_target": "Chromobox protein homolog 1 (Homo sapiens) (UniProt P83916)", "sequence (P83916 whole entry, looked up)": "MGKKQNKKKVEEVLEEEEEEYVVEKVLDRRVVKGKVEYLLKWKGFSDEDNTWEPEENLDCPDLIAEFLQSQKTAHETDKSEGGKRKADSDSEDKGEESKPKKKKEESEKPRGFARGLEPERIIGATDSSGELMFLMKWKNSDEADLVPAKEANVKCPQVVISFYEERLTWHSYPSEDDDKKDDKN", "test": "HTS for Inhibitors of HP1-beta Chromodomain Interactions with Methylated Histone Tails; also: nearly all actives have a fitted effect of over 70% in size", "conditions": "AlphaScreen HP1-beta / biotin-H3K9me3 peptide binding; series mostly up to 114 µM", "summary_of_the_method": "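Compound inhibition of the preformed complex between 50 nM HP1-beta and 50 nM biotinylated H3K9me3 peptide was read by AlphaScreen. Buffer was PBS pH 7.4 with 0.01% Tween-20. Incubations ran 30 min at room temperature, with 10 ug/mL donor/acceptor beads.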"}
{"smiles": "Cn1cccc1/C=C1\\CCc2ccccc2C1=O", "Potency": "inconclusive: 39.8 µM [inhibitor, partial curve]"}
{"smiles": "CC(=O)Nc1ccc(Nc2ccccc2)cc1", "Potency": "inactive"}
{"smiles": "N#Cc1c(Cl)nsc1NCCN1CCOCC1", "Potency": "inactive"}
{"smiles": "Oc1ccccc1N1CCN(c2ncnc3sc(-c4ccccc4)cc23)CC1", "Potency": "inconclusive: 10 µM [inhibitor, full curve]"}
{"smiles": "CC(=O)N1c2ccccc2C2(O)N=C(C)SC12", "note": "(stereo not given)", "Potency": "inconclusive: 8.91 µM [inhibitor, full curve]"}
{"smiles": "C/C=C/c1ccc(OCCCNC)c(OC)c1", "Potency": "inconclusive: 50.1 µM [inhibitor, partial curve]"}
{"smiles": "CN(C)/C(CN1CCCCC1)=C1\\N=C(c2ccccc2)OC1=O", "Potency": "inconclusive: 50.1 µM [inhibitor, partial curve]"}
{"smiles": "Nc1ccc(N2CCN(c3cccc(Cl)c3)CC2)cc1", "Potency": "inconclusive: 20 µM [inhibitor, full curve, poor fit]"}
{"smiles": "CCN1CCN(CCOc2cccc(Cl)c2Cl)CC1", "Potency": "inconclusive: 28.2 µM [inhibitor, partial curve, poor fit]"}
{"smiles": "COc1ccc(C2CC(c3ccccc3)Oc3cc4c(cc32)OCO4)cc1", "note": "(stereo not given)", "Potency": "inconclusive: 28.2 µM [inhibitor, full curve, poor fit] and inconclusive: 11.2 µM [inhibitor, full curve, poor fit]"}
{"smiles": "O=C1C=CC(=O)N1c1ccc2ccccc2c1", "Potency": "inconclusive: 20 µM [inhibitor, single point]"}
{"smiles": "CCS(=O)(=O)c1ccc(C(=O)Nc2cccc(Cl)c2)c(Cl)c1Cl", "Potency": "inconclusive: 89.1 µM [inhibitor, single point]"}
{"smiles": "Cc1cccc(N2CCN(C(=O)Cc3cn(C)c4ccccc34)CC2)c1C", "Potency": "inconclusive: 20 µM [inhibitor, full curve]"}
{"smiles": "COc1ccc(-c2ncc3ccccn23)cc1OC", "Potency": "inconclusive: 15.8 µM [inhibitor, full curve]"}
{"smiles": "Cc1ccc(C(=O)Sc2cccccc2=O)cc1", "Potency": "inconclusive: 70.8 µM [inhibitor, partial curve]"}
{"smiles": "O=C(O)c1cccc(Cn2cc(Cl)cn2)c1", "Potency": "inactive"}
{"smiles": "Cc1ccc2c(c1)Sc1c(ccc3ccccc13)N2", "Potency": "inconclusive: 31.6 µM [inhibitor, single point]"}
{"smiles": "O=C(NCCNC(=O)c1ccc(F)cc1)c1ccc(F)cc1", "Potency": "inactive"}
{"smiles": "CCCOc1ccc(/C=N/NC(=O)CN2CCCCC2)cc1", "Potency": "inactive"}
{"smiles": "O=C(Nc1nc(-c2ccco2)c(-c2ccco2)s1)c1ccc(F)cc1F", "Potency": "inconclusive: 39.8 µM [inhibitor, partial curve, poor fit]"}
{"smiles": "COC(=O)NC1CCC(NC(=O)OC)CC1", "note": "(stereo not given)", "Potency": "inconclusive: 39.8 µM [inhibitor, single point]"}
{"smiles": "COc1cc(OC)c(Cl)cc1N", "Potency": "inconclusive: 11.2 µM [inhibitor, partial curve, poor fit]"}
{"smiles": "CC(C)Cn1c(=S)[nH]c2cc(Cl)ccc21", "Potency": "inconclusive: 31.6 µM [inhibitor, partial curve]"}
{"smiles": "O=C(CCn1c(=O)c2cccn2c2ccc(F)cc21)NCCc1ccccc1Cl", "Potency": "inactive"}
{"smiles": "O=c1[nH]c(Cc2ccc(F)cc2)nc2scc(-c3ccc(F)cc3)c12", "Potency": "inconclusive: 28.2 µM [inhibitor, single point]"}
{"smiles": "CCCCN(C(=O)C1CC(=O)N(Cc2ccc(C)cc2)C1)c1c(N)n(CC(C)C)c(=O)[nH]c1=O", "note": "(stereo not given)", "Potency": "inactive"}
{"smiles": "Cn1c(CCC(=O)Nc2cc(S(C)(=O)=O)ccc2Cl)nc2cc(S(=O)(=O)N3CCOCC3)ccc21", "Potency": "inactive"}
{"smiles": "CCOc1ccccc1Nc1nnc(SCC(=O)Nc2nc(-c3ccc(OC)cc3)cs2)s1", "Potency": "inactive"}
{"smiles": "CCN(CC)CCNC(=O)c1ccc(NC(=O)Cc2cccc3ccccc23)cc1", "Potency": "inactive"}
{"smiles": "Cn1c(=O)n(Cc2ccccc2)c(=O)c2c1nc1n2CCCN1CCc1ccccc1", "Potency": "inconclusive: 50.1 µM [inhibitor, partial curve]"}
{"smiles": "COCCN(CCOC)S(=O)(=O)c1ccc(C(=O)Nc2sc3c(c2C(N)=O)CCCCC3)cc1", "Potency": "inconclusive: 28.2 µM [inhibitor, full curve]"}
{"smiles": "CC1CCCN(CCOc2ccc3ccccc3c2Br)C1", "note": "(stereo not given)", "Potency": "inconclusive: 39.8 µM [inhibitor, partial curve]"}
{"smiles": "COc1ccc(C(=O)/C=C/C(=O)N(CC(=O)NC2CCCCC2)Cc2ccccc2OC)c(O)c1", "Potency": "inactive"}
{"smiles": "COC(=O)C1=C(C)NC(C)=C(C(=O)O[C@@H]2CCCN(Cc3ccccc3)C2)[C@@H]1c1cccc([N+](=O)[O-])c1", "Potency": "inconclusive: 22.4 µM [inhibitor, full curve]"}
{"smiles": "COc1ccc(N2CCN(C(=O)Cc3noc4ccc(C)cc34)CC2)cc1", "Potency": "inactive"}
{"smiles": "O=[N+]([O-])c1ccc(N2CCCC2)nc1N1CCCC1", "Potency": "inconclusive: 50.1 µM [inhibitor, partial curve]"}
{"smiles": "O=[N+]([O-])c1ccc(N/N=C/c2c[nH]c3ccccc23)cc1", "Potency": "inconclusive: 44.7 µM [inhibitor, partial curve]"}
{"smiles": "Cc1ccc(C)c(N2CCN(C(=O)c3ccc4c(c3)c(C)c(C)n4C)CC2)c1", "Potency": "inconclusive: 28.2 µM [inhibitor, partial curve, poor fit]"}
{"smiles": "Cc1ccc(C2CC(=O)Nc3c2ccc2ccccc32)cc1[N+](=O)[O-]", "note": "(stereo not given)", "Potency": "inconclusive: 50.1 µM [inhibitor, partial curve]"}
{"smiles": "S=C(Nc1ccc(Cl)cc1)c1nc2ccccc2[nH]1", "Potency": "inconclusive: 25.1 µM [inhibitor, single point]"}
{"smiles": "O=[N+]([O-])c1ccc(S(=O)(=O)Nc2cccc(-c3ccc(N4CCOCC4)nn3)c2)cc1", "Potency": "inactive"}
{"smiles": "CCOc1cc(N2CCOCC2)c(OCC)cc1NC(=O)CN1CCCC1", "Potency": "inactive"}
{"smiles": "COc1ccc(OCC#CCN2CC(C)OC(C)C2)cc1", "note": "(stereo not given)", "Potency": "inconclusive: 20 µM [inhibitor, full curve]"}
{"smiles": "O=C(COC(=O)c1ccccc1Oc1ccccc1)NCc1ccco1", "Potency": "inconclusive: 56.2 µM [inhibitor, partial curve, poor fit]"}
{"smiles": "O=C(Nc1c2c(nn1-c1ccc(F)cc1)CS(=O)C2)c1ccco1", "note": "(stereo not given)", "Potency": "inconclusive: 89.1 µM [inhibitor, single point]"}
{"smiles": "CCOC(=O)c1ccc(-n2c(CCC(=O)O)ccc2-c2cccs2)cc1", "Potency": "inconclusive: 50.1 µM [inhibitor, single point]"}
{"smiles": "Oc1ccc(/C=C/c2cc(O)cc(O)c2)cc1", "Potency": "inactive"}
{"smiles": "Cc1cccc(N=Cc2cc3c(cc2[N+](=O)[O-])OCO3)c1", "Potency": "inconclusive: 44.7 µM [inhibitor, partial curve, poor fit]"}
{"smiles": "N#Cc1ccccc1Sc1ccccc1C(=O)NCC(c1ccco1)N1CCCC1", "note": "(stereo not given)", "Potency": "inconclusive: 70.8 µM [inhibitor, partial curve]"}
{"smiles": "CN(C)c1ccc2c(c1[N+](=O)[O-])Cc1ccccc1-2", "Potency": "inconclusive: 20 µM [inhibitor, full curve, poor fit]"}
